# Reference: the supplement of paper PMC12217912
# This is one part of the list. Sequences were assembled here from the parent chain. Inactive controls read about 0.05.
# B1: TEV protease; numbered along this chain (parent)
# chain: MGESLFKGPRDYNPISSSICHLTNESDGHTTSLYGIGFGPFIITNKHLFRRNNGTLVVQSLHGVFKVKDTTTLQQHLVDGRDMIIIRMPKDFPPFPQKLKFREPQREERICLVTTNFQTKSMSSMVSDTSCTFPSGDGIFWKHWIQTKDGQCGSPLVSTRDGFIVGIHSASNFTNTNNYFTSVPKNFMELLTNQEAQQWVSGWRLNADSVLWGGHKVFMVKPEEPFQPVKEATQL
# Variants of: B1
# Test: raw area under fraction-flipped curve 0-4 h after induction (AUC4h, not background-subtracted), DNA-recorder readout of cleavage of the substrate (dimensionless); higher = more cleavage of the substrate by the protease variant
# Conditions: temperature: 34 °C; time window: 0-4 h after rhamnose induction
# Method: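 In vivo DNA recorder in E. coli TOP10(DE3) ΔrhaA at 34 °C. Each TEVp single-site mutant (parent TEVp 0) is paired with a single-site variant of the 7-mer TEVs (canonical ENLYFQ|S). The substrate sits between flexible linkers in a Bxb1-sfGFP-TEVs-SsrA fusion, so cleavage stabilises Bxb1 and speeds flipping of a recombination array, read by NGS. The value is the raw area under the fraction-flipped curve over 0-4 h after rhamnose induction (AUC4h), with ≥20 reads per time point. It is not background-subtracted; inactive controls average about 0.047.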
# 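Further: Bxb1 expression induced with 0.2% (w/v) L-rhamnose at OD600 near 0.5, cultures sampled hourly, flipped fraction per protease–substrate barcode pair counted by paired-end Illumina sequencing.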
Variant,area with substrate ENLYFQA,area with substrate ENLYFQC,area with substrate ENLYFQD,area with substrate ENLYFQK,area with substrate ENLYFQL,area with substrate ENLYFQM,area with substrate ENLYFQN,area with substrate ENLYFQP,area with substrate ENLYFQR,area with substrate ENLYFQS,area with substrate ENLYFQT,area with substrate ENLYFQV,area with substrate ENLYFQW,area with substrate ENLYFQY,area with substrate ENLYFQE,area with substrate ENLYFQI,area with substrate ENLYFQQ,area with substrate ENLYFQG,area with substrate ENLYFQF,area with substrate ENLYFQH
P104V,0.0938,0.122,0.0449,0.0442,0.0495,0.0767,0.0689,0.0453,0.0662,0.0955,0.0607,0.0597,0.0634,0.0735,,,,,,
P104R,0.054,0.0473,0.0571,0.0606,,0.0508,,,0.0519,0.0539,0.0548,,0.0251,0.0457,0.0912,0.0588,0.0944,,,
F41D,0.085,0.0791,,0.0646,,0.0616,0.0544,,0.0505,0.0802,,0.0484,0.0669,,,0.0452,0.0496,0.0665,,
V64M,0.0965,0.101,0.0645,0.0608,0.0635,0.0886,0.0892,0.0545,0.0679,0.105,0.0779,,0.0456,0.0852,0.0766,0.0509,,0.0963,,
V64D,0.0897,0.136,0.069,0.0609,0.0802,0.0537,,,0.0656,0.101,0.0718,,,0.0884,0.0885,0.109,0.0688,0.112,,
T174Y,0.108,0.121,0.0792,0.0741,,0.0735,0.1,,,0.0976,,0.0664,,0.0722,,0.0632,,0.111,,
C152Y,0.0666,0.0464,,,0.0639,0.0639,0.0377,,0.0603,0.061,,,,0.0534,,,,,,
C152Q,0.0563,,,,,0.0622,,,,0.063,,0.0529,,,,0.0543,,,,
T72Q,0.101,0.144,,0.0628,0.0457,0.0905,0.0684,0.0817,0.0543,0.104,,0.0543,,0.135,,,,,,
M88V,0.0952,0.0976,,0.0723,0.0632,0.0797,0.0677,0.0452,0.0807,0.104,0.065,0.044,0.0669,0.0637,0.0491,0.0639,0.0796,0.103,0.0675,0.0908
M88R,0.0483,0.0457,,,0.0254,0.0515,0.0456,,0.0371,0.0543,0.0552,0.042,,0.0516,,0.0558,,0.0435,,
S32F,0.105,0.0901,0.0674,0.0514,0.0588,,0.071,,0.0568,0.0938,0.0617,,0.0573,0.087,,0.0565,,0.0997,0.036,0.0787
S32T,0.103,0.107,0.0822,0.118,0.054,0.0677,0.0771,0.0331,0.0536,0.101,0.0941,0.0721,0.0624,,0.0514,0.0604,,0.092,0.0725,0.0984
S32C,0.0636,0.064,0.0788,0.0848,0.0639,0.0914,,0.059,0.068,0.106,0.0711,0.0557,0.0684,0.0764,,,,0.109,,
I19G,0.0731,0.073,,0.0651,0.0592,0.0506,0.0621,0.0526,0.0545,0.0805,0.0464,0.0541,0.057,,,0.0548,0.0681,0.0754,0.0866,0.0745
P96A,0.0837,0.173,0.0564,0.0761,,0.0489,,,0.0264,0.107,0.0693,,0.0625,,,0.0519,0.0723,,,
S16F,0.0914,0.119,,0.0583,,0.0964,0.0853,0.0557,0.0602,0.107,0.0701,,0.0472,,0.0696,0.0699,0.0694,0.124,0.0642,
N13Q,0.117,0.124,0.0612,0.0602,0.059,0.0996,0.0629,0.0604,0.0604,0.11,0.0677,0.068,0.0753,,0.0787,0.0589,0.0703,0.112,0.0778,0.089
L33S,0.0927,0.111,0.0686,0.0649,0.0471,0.0534,0.0493,0.0648,0.0566,0.0931,0.0843,0.0551,0.0562,0.064,,0.0686,,0.0814,,
L33K,0.0505,,0.0552,,0.0481,,,0.0626,0.0587,0.0589,,0.0547,,0.062,0.0544,,0.0514,,0.0531,
R106P,0.0999,,0.0846,0.0631,0.0584,0.0908,,,0.0306,0.106,,0.0644,,,,0.0588,,,,
R106Q,0.0904,0.164,,0.0699,0.0593,0.0819,0.101,0.0561,0.077,0.101,0.0578,0.0738,0.0631,0.0916,0.0753,0.0614,,0.0843,0.081,0.0807
P184Q,0.0966,0.101,,,0.0611,0.0742,0.0791,,0.0479,0.0785,0.0582,,0.0591,0.0538,,0.0508,0.0527,0.0659,,
A232R,0.111,0.114,,,,,0.0841,,0.0677,0.104,0.0654,0.0667,0.0678,0.0839,0.0701,,0.0643,0.14,,0.0913
A232L,0.0921,,0.0707,0.067,,0.0868,,0.0789,0.0548,0.0977,0.0719,,,0.0754,,,0.0744,0.0924,,
H62K,0.0891,,0.0655,0.0772,0.0549,,,,0.0693,0.104,,0.0531,,0.0834,,,,,,
